Data as given in patent publication US9718818B2, “Compounds inhibiting leucine-rich repeat kinase enzyme activity” (MERCK SHARP & DOHME CORP., priority 2013, dated 2017).

Each compound was assayed against LRRK2 (G2019S mutation, GST-LRRK2 (amino acids 970-2527)) (Homo sapiens, UniProt Q5S007, G2019S) (assay: LRRK2 Km ATP LanthaScreen Assay). Details: IC50 (nM), mean IC50 of several tests, fluorescein LRRKtide substrate, TR-FRET.

Row | IC50 | Compound
1 | 814 nM | Oc1ccc2[nH]nc(-c3ccnc(N4CCOCC4)c3)c2n1 [Example I2]
2 | 3 nM | OC1CN(c2cc(-c3n[nH]c4cnc(-c5cccnc5)cc34)ccn2)C1 [Example B1.2]
3 | 58 nM | Clc1cc2c(-c3ccnc(N4CCOCC4)c3)n[nH]c2cn1 [Example W1]
4 | 97.8 nM | CS(=O)(=O)N1CCN(c2cc(-c3n[nH]c4cnc(C5CC5)cc34)ccn2)CC1 [Example E1]
5 | 2.66 nM | Cn1cc(-c2ccc3[nH]nc(-c4ccnc(N5CCOCC5)c4)c3n2)cn1 [Example B1.13]
6 | 4.4 nM | O[C@@H]1CCN(c2cc(-c3n[nH]c4cnc(-c5cccnc5)cc34)ccn2)C1 [Example B1.3]
7 | 102 nM | CC(C)Oc1cc2c(-c3ccnc(N4CCOC4=O)c3)n[nH]c2cn1 [Example T2]
8 | 73 nM | c1cnc2c(-c3ccnc(N4CCOCC4)c3)n[nH]c2c1 [Example X3]
9 | < 0.6 nM | Cn1cc(-c2cc3c(-c4ccnc(N5CCOCC5)c4)n[nH]c3cn2)cn1 [Example D1.2]
10 | 220 nM | c1cnc2[nH]nc(-c3ccnc(N4CCOCC4)c3)c2c1 [Example X2]
11 | 2.1 nM | CC1(Oc2cc3c(-c4cc(N5CCOCC5)ncn4)n[nH]c3cn2)CC1 [Example P1]
12 | 7.2 nM | Cn1cc(-c2cc3c(-c4ccnc(-n5ccnc5)c4)n[nH]c3cn2)cn1 [Example B3.1]
13 | 58.6 nM | CC(C)Oc1cc2c(-c3cc(N4CCN(C)C(=O)C4)ncn3)n[nH]c2cn1 [Example U3]
14 | 433 nM | FC(F)(F)COc1cc2c(-c3ccnc(N4CCOCC4)c3)n[nH]c2cn1 [Example G8]
15 | 593 nM | CN1CCN(c2cc(-c3n[nH]c4ccc(OC5(C)CC5)nc34)ncn2)CC1 [Example AB1]
16 | 26.8 nM | CC(C)Oc1ncc2[nH]nc(-c3ccnc(N4CCOCC4)c3)c2n1 [Example H2]
17 | 1.04 nM | COC1CN(c2cc(-c3n[nH]c4cnc(-c5cnn(C)c5)cc34)ccn2)C1 [Example D1.1]
18 | 149 nM | FCCOc1cc2c(-c3ccnc(N4CCOCC4)c3)n[nH]c2cn1 [Example G1]
19 | 189 nM | COc1ccc(-c2cc3c(-c4ccnc(N5CCOCC5)c4)n[nH]c3cn2)c(OC)n1 [Example B1.10]
20 | 76 nM | CC(C)Oc1cc2c(-c3cc(N4CCOCC4)ncn3)n[nH]c2cn1 [Example U1]
21 | 42 nM | c1cc2c(-c3ccnc(N4CCOCC4)c3)n[nH]c2cn1 [Example X1]
22 | 0.69 nM | COc1ccncc1-c1cc2c(-c3ccnc(N4CC[C@H](O)C4)c3)n[nH]c2cn1 [Example B1.7]
23 | 0.6 nM | COCCNc1cc(-c2n[nH]c3cnc(-c4cnccc4OC)cc23)ccn1 [Example A1]
24 | 2.5 nM | COc1ccncc1-c1ccc2[nH]nc(-c3ccnc(N4CCOCC4)c3)c2n1 [Example B1.12]

Same assay, conditions: LRRK2 IC50 (nM), mean IC50 of several tests, fluorescein LRRKtide substrate, TR-FRET

Row | IC50 | Compound
25 | 42.5 nM | CC(C)Oc1cc2c(-c3ccnc(N4CCN(C(=O)C5CCCN5C)CC4)c3)n[nH]c2cn1 (stereo not shown) [Example L11]
26 | 238 nM | CCC(C)CN1CCN(c2cc(-c3n[nH]c4cnc(OC(C)C)cc34)ccn2)CC1 (stereo not shown) [Example M3]
27 | 85.9 nM | CC(C)Oc1cc2c(-c3ccnc(N4CCN(C(=O)C(F)F)CC4)c3)n[nH]c2cn1 [Example L5]
28 | 150 nM | CO[C@H]1CN(c2cc(-c3n[nH]c4cnc(OC(C)C)cc34)ncn2)C[C@@H]1O [Example N11]
29 | 48 nM | CC(C)Oc1cc2c(-c3ccnc(N4CC(S(C)(=O)=O)C4)c3)n[nH]c2cn1 [Example J14]
30 | 114 nM | CC(C)Oc1cc2c(-c3ccnc(N4CCN(C(=O)C5(C)COC5)CC4)c3)n[nH]c2cn1 [Example L6]
31 | 127 nM | CC(C)Oc1cc2c(-c3ccnc(N4CCN(CC5CCC5)CC4)c3)n[nH]c2cn1 [Example J24]
32 | 223 nM | COCCN(C)c1cc(-c2n[nH]c3cnc(OC(C)C)cc23)ncn1 [Example N8]
33 | 57 nM | CC(C)Oc1cc2c(-c3ccnc(N4CCN(C(=O)c5ccccn5)CC4)c3)n[nH]c2cn1 [Example L4]
34 | 28 nM | CC(C)Oc1cc2c(-c3ccnc(N4CCCC(n5cncn5)C4)c3)n[nH]c2cn1 (stereo not shown) [Example J20]
35 | 201 nM | CC(C)Oc1cc2c(-c3cc(N4CC(n5cnnc5)C4)ncn3)n[nH]c2cn1 [Example N20]
36 | 61 nM | CC(C)Oc1cc2c(-c3cc(N4CCN(C)CC4)ncn3)n[nH]c2cn1 [Example N5]
37 | 40 nM | CC(C)Oc1cc2c(-c3ccnc(N4CCN(S(=O)(=O)Cc5ccncc5)CC4)c3)n[nH]c2cn1 [Example K9]
38 | 102 nM | Cc1nonc1N1CCN(c2cc(-c3n[nH]c4cnc(OC(C)C)cc34)ccn2)CC1 [Example J25]
39 | 65 nM | COCC(=O)N1CCN(c2cc(-c3n[nH]c4cnc(OC(C)C)cc34)ccn2)CC1 [Example L3]
40 | 95 nM | CC(C)Oc1cc2c(-c3ccnc(N4CCN(S(=O)(=O)c5cccnc5)CC4)c3)n[nH]c2cn1 [Example K7]
41 | 25 nM | CCCS(=O)(=O)N1CCN(c2cc(-c3n[nH]c4cnc(OC(C)C)cc34)ccn2)CC1 [Example K2]
42 | 45 nM | CC(C)Oc1cc2c(-c3ccnc(N4CCN(S(=O)(=O)C5CC5)CC4)c3)n[nH]c2cn1 [Example K12]
43 | 34 nM | CC(C)Oc1cc2c(-c3ccnc(N4CCN(S(=O)(=O)C(C)C)CC4)c3)n[nH]c2cn1 [Example K5]

Row | IC50 | Compound
44 | 152 nM | CC(C)Oc1cc2c(-c3ccnc(N4CCN(S(=O)(=O)C(F)F)CC4)c3)n[nH]c2cn1 [Example K11]
45 | 129 nM | CC(C)Oc1cc2c(-c3ccnc(N4CCc5oc(C6CC6)nc5C4)c3)n[nH]c2cn1 [Example J23]
46 | 45 nM | CC(C)Oc1cc2c(-c3ccnc(N4CCCCC4)c3)n[nH]c2cn1 [Example J7]
47 | 64 nM | CC(C)Oc1cc2c(-c3ccnc(N4CC5CCC(C4)O5)c3)n[nH]c2cn1 [Example J2]
48 | 44 nM | CC(C)Oc1cc2c(-c3ccnc(N4C[C@H](O)[C@@H](N(C)C)C4)c3)n[nH]c2cn1 [Example J17]
49 | 28 nM | CC(C)Oc1cc2c(-c3ccnc(N4CCCC4)c3)n[nH]c2cn1 [Example J8]
50 | 69 nM | CC(C)Oc1cc2c(-c3cc(N4C[C@H](O)[C@@H](N(C)C)C4)ncn3)n[nH]c2cn1 [Example N10]
51 | 67 nM | CC(C)Oc1cc2c(-c3ccnc(N4CC[S+]([O-])CC4)c3)n[nH]c2cn1 [Example J22]
52 | 65 nM | CC(C)CN1CCN(c2cc(-c3n[nH]c4cnc(OC(C)C)cc34)ccn2)CC1 [Example M2]
53 | 83 nM | CC(C)Oc1cc2c(-c3ccnc(N4CC(n5cccn5)C4)c3)n[nH]c2cn1 [Example J21]
54 | 26 nM | CC(C)Oc1cc2c(-c3ccnc(N4CCN(Cc5ccncc5)CC4)c3)n[nH]c2cn1 [Example M4]
55 | 258 nM | CC(C)Oc1cc2c(-c3ccnc(N4CCN(S(=O)(=O)c5ccccc5)CC4)c3)n[nH]c2cn1 [Example K4]
56 | 66.1 nM | CC(C)Oc1cc2c(-c3ccnc(N4CCN(C(=O)CN5CCOC5=O)CC4)c3)n[nH]c2cn1 [Example L8]
57 | 30 nM | CC(C)Oc1cc2c(-c3cc(N4C[C@@H](C)O[C@@H](C)C4)ncn3)n[nH]c2cn1 [Example N6]
58 | 102 nM | CC(C)Oc1cc2c(-c3cc(N4CCCC4)ncn3)n[nH]c2cn1 [Example N23]
59 | 24 nM | CC(C)Oc1cc2c(-c3ccnc(N4CCN(C)CC4)c3)n[nH]c2cn1 [Example J10]
60 | 95 nM | CO[C@H]1CCN(c2cc(-c3n[nH]c4cnc(OC(C)C)cc34)ncn2)C1 [Example N22]
61 | 62 nM | CC(C)Oc1cc2c(-c3cc(N4CCO[C@@H](C)C4)ncn3)n[nH]c2cn1 [Example N13]
